Consider 111 compounds from PubChem BioAssay AID488969 (Vanderbilt High Throughput Screening Facility, 2010).

The full ranking holds about 110,000 compounds; the median of “z-score” is about -0.1, and the highest 2% start at about 2. The list shows a part of the results. Calls of active or inactive are those of the source.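 The calls were made as follows: active = z-score in the third read window above 3 or below -3; inactive = the rest.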

The target of the test is Metabotropic glutamate receptor 8 (Rattus norvegicus) (UniProt P70579). The test can be described thus: mGluR8 Gi/Go-coupled signaling modulation – cell-based, rat, thallium flux, HTS, primary screen (AID 488969). Conditions: HEK293 rat mGluR8, GIRK (G protein-gated inwardly rectifying potassium channel) thallium flux, FluoZin2; at 10 µM; stronger effect = higher value; submaximal glutamate (EC20) added with thallium.
Chain of UniProt P70579 (P70579 whole entry, looked up): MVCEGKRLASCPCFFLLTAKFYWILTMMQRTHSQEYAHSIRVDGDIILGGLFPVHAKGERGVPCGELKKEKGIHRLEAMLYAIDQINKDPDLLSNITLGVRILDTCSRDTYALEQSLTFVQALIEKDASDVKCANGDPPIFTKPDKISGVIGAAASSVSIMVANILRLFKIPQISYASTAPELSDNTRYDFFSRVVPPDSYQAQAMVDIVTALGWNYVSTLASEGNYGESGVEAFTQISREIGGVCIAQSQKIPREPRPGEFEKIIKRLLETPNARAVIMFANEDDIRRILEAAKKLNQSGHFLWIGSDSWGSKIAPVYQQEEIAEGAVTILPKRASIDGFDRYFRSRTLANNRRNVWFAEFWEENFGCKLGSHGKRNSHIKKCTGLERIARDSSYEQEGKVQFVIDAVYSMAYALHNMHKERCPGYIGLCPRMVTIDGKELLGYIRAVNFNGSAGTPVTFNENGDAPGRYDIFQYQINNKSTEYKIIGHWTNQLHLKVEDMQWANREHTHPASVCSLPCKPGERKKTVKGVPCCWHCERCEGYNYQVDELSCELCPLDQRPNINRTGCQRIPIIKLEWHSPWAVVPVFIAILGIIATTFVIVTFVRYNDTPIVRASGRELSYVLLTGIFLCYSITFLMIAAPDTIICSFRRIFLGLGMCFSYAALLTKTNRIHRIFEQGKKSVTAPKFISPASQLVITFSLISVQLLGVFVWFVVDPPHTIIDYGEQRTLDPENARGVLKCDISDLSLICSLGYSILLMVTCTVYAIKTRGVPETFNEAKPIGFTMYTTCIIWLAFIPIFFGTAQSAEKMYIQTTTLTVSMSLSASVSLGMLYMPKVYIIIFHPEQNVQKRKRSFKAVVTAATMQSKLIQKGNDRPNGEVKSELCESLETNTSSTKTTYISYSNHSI
The compound `CCOc1cc2[nH]c(=S)n(CCN3CCCCC3C)c(=O)c2cc1OCC` (stereo unspecified) gave a z-score of 0.258.

`CCOC(=O)C1CCCN(S(=O)(=O)c2cccs2)C1` (stereo unspecified) had a z-score of 1.12.

On to `CC(NC(=O)CCSc1nc(-c2ccco2)cc(C(F)(F)F)n1)c1ccccc1` (stereo unspecified), for which the z-score was -0.191.

`Cc1ccc(C(=O)OCc2nnc(-c3ccccc3)o2)o1` showed a z-score of 0.0679.

For the compound `S=C(NN=C(C1CC1)C1CC1)Nc1ccccc1`, the z-score is active: 4.43.

Compound `O=C(CSc1nc2ccccc2s1)c1cc2ccccc2o1` came in with a z-score of -0.2.

In the case of `CCC1(c2ccccc2)NC(=S)N(c2cccc(C)c2C)N1` (stereo unspecified), the z-score worked out at 1.26.

Compound `CCOC(=O)c1c(/N=C/N(C)C)sc(/C=N/Nc2ccccc2)c1-c1ccc(Cl)cc1` yielded a z-score of 0.0481.

In the case of `N#Cc1ccsc1NC(=O)COC(=O)c1cc2ccccc2cc1O`, the z-score is -0.0194.

`O=C(COC(=O)c1ccc(=O)n(Cc2ccccc2)n1)Nc1ccc2c(c1)OCCO2`: the z-score is -1.32.

Consider `Cc1nc(N)nc(OCC(F)(F)C(F)F)c1Br`, for which the z-score was -0.145.

For the compound `Nc1c(C(=O)c2cccs2)oc2ccccc12`, the z-score is -0.109.

`CN(C)/C=C(\C#N)C(=O)c1cccnc1Oc1ccc(F)cc1F` yielded a z-score of 0.0242.

The compound `CCc1c(C(=O)Nc2ccc(OC)c(Cl)c2)[nH]c(C)c1C(C)=O` gave a z-score of -0.335.

As to `O=C(Nc1ccc(Cl)cn1)c1cc(S(=O)(=O)N2CCCCC2)ccc1Cl`, the z-score turned out to be 0.807.

Compound `CCc1nc(NC(C)C)c2oc3ccccc3c2n1` returned a z-score of -0.284.

The compound `Cc1cccc(NC(=O)/C(=C\c2cccs2)NC(=O)c2ccccc2)c1` came in with a z-score of -0.272.

With `CCOC(=O)c1ccc(N2Cc3ccccc3C2)cc1O`, the z-score is -0.0165.

`O=C(Nc1ccc(Cc2ccncc2)cc1)C1CCC(N2C(=O)C3C4C=CC(C4)C3C2=O)CC1` (stereo unspecified) registered a z-score of -0.379.

Regarding `Nc1c(S(=O)(=O)c2cccs2)c2nc3ccccc3nc2n1Cc1cccs1`, the z-score is -1.05.

Compound `Cc1cc(NC(=O)CSc2nc(C(C)C)nc3sc4c(c23)CCCC4)no1` returned a z-score of -0.493.

The compound `Cc1cccc(OCC(=O)Nc2ccc3c4c(cccc24)CC3)c1C` displayed a z-score of -0.0548.

On to `Cc1ccnc(NS(=O)(=O)c2ccc(NC(=O)c3ccc(N4C(=O)CCC4=O)cc3)cc2)n1`, for which the z-score was -0.246.

Take `O=C(CCS(=O)(=O)c1cccc2nonc12)Nc1cccc2c1CCCC2`: the z-score was -0.699.

`Fc1ccc(NC(=S)N/N=C/c2ccc(F)c(F)c2)c(F)c1`: the z-score was active: 13.

Compound `CC(C)c1ccc(C(=O)N(c2ccccn2)C(C)c2ccco2)cc1` (stereo unspecified) had a z-score of -0.451.

`Cn1c(=O)[nH]c(=O)c2c1nc(N1CCCCCC1)n2Cc1cccc2ccccc12` returned a z-score of -1.43.

On to `COc1ccc(/C=C/C(=O)OCC(=O)NCc2ccco2)cc1OC`, for which the z-score was -0.183.

Compound `COCCNc1ncnc2c1cnn2-c1ccc(Cl)cc1` gave a z-score of 0.0016.

As for `CCOC(=O)c1sc(NC(=O)c2ccc(C)o2)nc1C`, the z-score was -0.0466.

For `CCCC(=O)NC(Nc1ccccc1OC)C(Cl)(Cl)Cl` (stereo unspecified), the z-score is -0.206.

For `COc1ccc(OC(=O)c2cccnc2)cc1`, the z-score is -0.0966.

As for `O=C(Nc1cccc2ccccc12)N1CC=CCC1`, the z-score was -0.000291.

In the case of `CCN(C(=O)CSc1ncn[nH]1)C1CCCCC1`, the z-score is -0.31.

Consider `CC(C)CC(NC(=O)c1cccs1)c1nnc(SCc2ccc(Cl)c(Cl)c2)n1C` (stereo unspecified), for which the z-score is -0.451.

As to `COc1ccc(C(=O)N[C@H](C(=O)Nc2nc3c(s2)CCCC3)C(C)C)cc1`, the z-score is -0.401.

For `C=CCNC(=O)c1onc(CSc2ccc(F)cc2)c1C(=O)NCCOC`, the z-score is -0.188.

Take `COC(=O)CCC(=O)NNC(=O)c1cccc(Cl)c1`: the z-score is -0.0301.

In the case of `Cc1cccc(-n2c(C)cc(C=C3C(=O)c4ccccc4C3=O)c2C)c1`, the z-score stood at 0.264.

Compound `O=C(NCCCNC(=O)NC1CCCCC1)NC1CCCCC1` showed a z-score of -0.38.

In turn, `COCCOc1cc(Nc2nnc(C(F)(F)F)s2)c(Cl)cc1Cl` registered a z-score of -0.218.

`[O-]/C(=C(\C(=S)NCc1ccco1)[n+]1ccccc1)c1ccccc1Br` showed a z-score of 0.181.

Compound `O=C(Cn1c(=O)[nH]c2ccsc2c1=O)N1CCN(c2ccc(F)cc2)CC1` registered a z-score of 0.356.

As for `CC(=O)c1c(C)nc2ccccc2c1N`, the z-score amounted to 0.205.

Consider `CCCCNC(=O)CC(NS(=O)(=O)c1ccc(C)cc1)c1ccco1` (stereo unspecified), for which the z-score was found to be 0.225.

`Cc1csc(NC(=O)C2CCN(C(=O)CSc3nnc(C)n3Cc3ccccc3)CC2)n1` displayed a z-score of 0.871.

As for `C=Cn1c(C(=O)O)cc(CC)c1-c1ccccc1`, the z-score is -0.157.

Consider `Cc1cnc(C(=O)Nc2ccccc2-c2ccc(C)o2)cn1`, for which the z-score was -0.182.

Regarding `O=C(COc1ccc2c(c1)CCC2)N1CCN(c2ccccc2F)CC1`, the z-score came to 0.363.

In the case of `COc1cc(C=O)ccc1OCCSc1ccc(C)cc1`, the z-score was -0.427.

The compound `CCC(Oc1ccc(C)c(C)c1)C(=O)O` (stereo unspecified) registered a z-score of -0.0336.

For `COc1ccccc1CNC(=O)CCNC(=O)Cn1cnc2ccccc2c1=O`, the z-score was -2.9.

`CCN(CC)C(=O)CSc1ncnc2c1cnn2-c1ccccc1` yielded a z-score of -0.00204.

`Cc1ncc(N=Nc2ccc(F)cc2)c(-c2ccc(Cl)cc2)n1`: the z-score was -0.28.

On to `N#C/C(=C\c1ccc(Cl)cc1Cl)c1n[nH]c(Cn2cncn2)n1`, for which the z-score was -1.59.

Take `CC(=O)N(Cc1ccccc1)c1ccc(C(=O)O)cc1`: the z-score was -0.0088.

In the case of `Cc1cc(C(=O)CSc2nnc(-c3ccc4c(c3)OCO4)o2)c(C)n1-c1ccc(F)cc1`, the z-score is -0.128.

With `Cc1nn2c([nH]c(=O)c3ccccc32)c1C=O`, the z-score was 0.184.

`O=C(c1ccc(Cl)cc1)c1cnc(-c2ccc(Cl)cc2)s1` displayed a z-score of -0.111.

Take `O=c1[nH]nc(Cc2ccc(-c3ccc(Cl)cc3)o2)c2ccccc12`: the z-score was -0.067.

The compound `CCOc1ccc(NC(=O)CN(C)c2ccc(S(=O)(=O)N3CCOCC3)cn2)cc1OCC` had a z-score of -0.527.

Turning to `C=CCNC(=O)CN(c1ccc(F)cc1)S(=O)(=O)c1ccc(OC)cc1`, the z-score is 0.0947.

`O=C(NC1C(=O)NNC1c1ccccc1)c1ccccc1` (stereo unspecified): the z-score is -0.136.

For the compound `Cc1cc(C)c(C#N)c(SCc2ccccc2)n1`, the z-score is -0.758.

As to `Cc1ccc(NC(=S)NC(NC(=O)c2ccco2)C(Cl)(Cl)Cl)cc1` (stereo unspecified), the z-score was 0.98.

For `CC1(C)CC(=O)/C(=C\c2cccc([N+](=O)[O-])c2)C(C)(C)N1`, the z-score is -0.221.

In turn, `COCc1nc2ccccc2n1CCCOc1ccccc1` showed a z-score of -0.414.

On to `COc1cc(C)c(Cl)c(C)c1S(=O)(=O)NCc1ccc2c(c1)OCO2`, for which the z-score was 0.315.

For `CCOc1cc(S(=O)(=O)NCCc2cccc(C)c2)c(OCC)cc1-n1cnnn1`, the z-score was -1.22.

With `CC(=O)NC(Cc1c[nH]c2ccccc12)C(=O)NCc1ccc2c(c1)OCO2` (stereo unspecified), the z-score turned out to be 0.203.

In turn, `Cc1cccc(OCC(=O)Nc2cc(C)c(C)cc2O)c1` registered a z-score of 0.318.

In turn, `CCN(CC)C(=O)c1sc(NC(=O)c2ccc(Br)o2)c(C(=O)OC)c1C` showed a z-score of -0.165.

With `O=C(CCc1ccc(S(=O)(=O)NC2CCCCC2)cc1)NCc1ccccc1`, the z-score is -0.277.

`Cc1cccc(N2CCN(C(=O)C3CCCCC3)CC2)c1C` came in with a z-score of -0.211.

`CCOc1ccc(NC(=O)N(CCC(C)C)C2CCN(C(C)=O)CC2)cc1` showed a z-score of -0.426.

`CC(C)Oc1ccc(-c2cc(=O)[nH]c(=O)[nH]2)cc1` displayed a z-score of -0.397.

On to `C/C(=N\NC(N)=O)c1ccc(Cl)cc1`, for which the z-score was -0.78.

Consider `CC(C)c1nc(SCC(=O)Nc2cccc(C(F)(F)F)c2)c2c(=O)n(C)c(=O)n(C)c2n1`, for which the z-score is -0.509.

Turning to `CC(OC(=O)c1cc2c(s1)CCCCC2)C(=O)NC(N)=O` (stereo unspecified), the z-score was -0.0656.

`COC(=O)C(NC(=O)COc1ccccc1)(Nc1nc2c(s1)CCCC2)C(F)(F)F` (stereo unspecified) displayed a z-score of 2.96.

Compound `O=C(Cc1ccccc1)N/N=C/c1ccc(OCC(=O)Nc2ccccc2)cc1` returned a z-score of -0.147.

Compound `Cc1csc(SCC(=O)NC(=O)Cc2ccccc2)n1` registered a z-score of -0.52.

On to `COc1ccc(N2CCN(C(=O)C34CCC(C)(C(=O)C3)C4(C)C)CC2)cc1` (stereo unspecified), for which the z-score was -0.157.

In turn, `CCc1nccn1S(=O)(=O)c1cc(Br)ccc1OC` gave a z-score of -0.405.

Consider `CCOC(=O)c1sc(NC(C)=O)nc1-c1ccccc1`, for which the z-score was 0.0747.

`CCOc1ccc(N=Nc2c(N)[nH][nH]c2=O)cc1` yielded a z-score of -0.154.

Compound `Cc1cc(NC(=O)C2C3C(=O)N(Cc4ccc(Cl)cc4)C(C(=O)NCc4ccccc4)C34C=CC2(C)O4)no1` (stereo unspecified) yielded a z-score of 0.193.

The compound `Cc1nc(-c2ccc(NC(=O)c3ccccc3Br)cc2)cs1` came in with a z-score of -0.389.

On to `CC(C)(C)c1ccc(C(=O)NNC(=O)Cc2cccc3ccccc23)cc1`, for which the z-score is -0.0076.

On to `CCC(CC)c1nnc(NC(=O)/C=C/c2ccco2)s1`, for which the z-score is -0.154.

For the compound `O=C(CN(Cc1ccccc1)C1=NCCS1)c1ccccc1`, the z-score was -0.754.

As to `COc1ccc(S(=O)(=O)N2CCCC(C(=O)O)C2)cc1Cl` (stereo unspecified), the z-score was -0.0148.

`CC12CCC(C(=O)N3CCN(C(=O)C45CCC(C)(C(=O)O4)C5(C)C)CC3)(OC1=O)C2(C)C` came in with a z-score of 0.641.

Turning to `Cc1ccc2nc(-c3ccc(N4C(=O)CC(N5CCCC(C)C5)C4=O)cc3)sc2c1` (stereo unspecified), the z-score was -0.124.

The compound `COc1cccc(S(=O)(=O)Nc2ccc(C(=O)N3CCN(C(=O)c4ccco4)CC3)cc2)c1` yielded a z-score of -0.29.

Compound `Cc1cccc(S(=O)(=O)Nc2nc3ccccc3nc2Nc2ccc3c(c2)OCO3)c1` returned a z-score of -0.592.

With `COc1ccc(C(C)(C)C)cc1NC(=O)c1cc(S(=O)(=O)N(C)C)ccc1N1CCCC1`, the z-score is -0.481.

In turn, `Cn1cccc1CC(=O)N/N=C/C(Cl)=C/c1ccccc1` yielded a z-score of 0.188.

Compound `CCOC(=O)c1cc2cc(OC)ccc2[nH]1` showed a z-score of 0.182.

On to `COc1ccc(NC(=O)c2ccccc2[N+](=O)[O-])cc1OC`, for which the z-score is -0.438.

As to `Cc1nnc(SCCn2c(Br)nc3c2c(=O)n(C)c(=O)n3C)s1`, the z-score is 0.366.

`Cc1noc(C)c1C(=O)OCC(=O)Nc1cc(Cl)ccc1Oc1ccccc1` displayed a z-score of 0.183.

Regarding `Cc1ccc(-c2noc(CSc3nc(N)cc(N)n3)n2)cc1`, the z-score amounted to 0.085.

Take `CC(=O)Nc1nonc1NC(=O)CSc1nc2ccccc2o1`: the z-score is -0.262.

For the compound `O=C(NNC(=O)c1ccccc1-n1cccc1)c1ccc(Cl)c(Cl)c1`, the z-score is 0.0734.

On to `C#CCn1cc(/C=N/Nc2nc3ccccc3[nH]2)c2ccccc21`, for which the z-score is -0.392.

`Cc1cc(-c2ccccc2)nc(N(C)NC(=O)c2ccc(Cl)cc2)c1S(C)(=O)=O` yielded a z-score of -0.143.

`Cc1ccc(OCC(=O)c2cc(C)n(C3CC3)c2C)c([N+](=O)[O-])n1`: the z-score was -0.0663.

As for `O=c1cc(-c2ccccc2)nc(SCc2ccc(Cl)cc2)[nH]1`, the z-score is -0.183.

`COC(=O)c1ccc(Cl)c(NC(=O)CN(c2ccccc2)S(=O)(=O)c2ccc(OC)cc2)c1` yielded a z-score of -0.436.

Regarding `NS(=O)(=O)c1ccc(CNC(=O)C2CCCCC2)cc1`, the z-score is 0.0132.
